In PubChem BioAssay AID1347073 (National Center for Advancing Translational Sciences (NCATS), 2019):
The whole screen tested about 45,000 compounds, of which about 200 (0.44%) were called active. Roughly 7% stayed inconclusive and do not appear here. Calls come from the whole dose curve; as a rule, active = well fitted activation curve with a large enough effect; inconclusive = small, poorly fitted or top-dose-only effect; inactive = no such curve, though single readings can be large or run the other way. Some of the results follow.

Assay: qHTS of TDP-43 Inhibitors: NCGC Sytravon Library Screen; note: 0% is about no effect; nearly all actives have a fitted effect of over 55% in size
Details: yeast TDP-43 toxicity rescue, BacTiter-Glo growth, 24 h; series mostly up to 46.1 µM; growth rescue (activation): at the top concentration
In short: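 TDP-43-expressing yeast, pregrown in raffinose, seeded at OD600 0.02 in galactose medium with compound for 24 hr at 30 deg C. Growth read by BacTiter-Glo luminescence, so rescue of toxicity appears as activation.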

SMILES | growth rescue (activation)
CCn1c(-c2ccccc2)c(C(=O)CC#N)c2ccccc21 | inactive: 11.1%
CC(=O)c1ccc(NC(=O)N2CCN(c3ccc(C)cc3)C(C)C2)cc1 (centres undefined) | inactive: 4.7%
Cc1ccc(S(=O)(=O)CC(=O)Nc2ccccn2)cc1 | inactive: -7.56%
O=C(COC(=O)c1ccc(Cl)nc1)Nc1ccc2ccccc2c1 | inactive: 17.8%
O=C(Cc1ccccc1)N/N=C/c1ccc(-c2ccc([N+](=O)[O-])cc2)o1 | inactive: 13%
O=C(Nc1ccccn1)c1ccc(CN(c2ccccc2)S(=O)(=O)c2ccccc2)cc1 | inactive: 8.57%
COc1ccc(NC(=O)c2ccc(C#CC(C)(C)O)cc2)cc1 | inactive: 29.5%
CCOc1ccc(C(=O)Nc2ccc(N3CCN(S(C)(=O)=O)CC3)cc2)cc1[N+](=O)[O-] | inactive: -0.458%
O=C(CCCOc1ccccc1)N1CCN(S(=O)(=O)c2ccccc2)CC1 | inactive: 24.5%
O=C(COc1ccccc1Cl)c1ccc[nH]1 | inactive: 23.6%
CCN(CC)CCOc1ccccc1OC | inactive: 13%
O=C(CN1CCN(C(=S)NC2CCCC2)CC1)Nc1ccc(Oc2ccccc2)cc1 | inactive: 16.6%
COCCCC1CCN(C(=O)C2CCC(=O)N(C3CCCCCC3)C2)CC1 (centres undefined) | inactive: -4.17%
CCCNC(=O)C1(C)CCN(CCC(=O)c2ccc(Br)cc2)C1 (centres undefined) | inactive: 0.788%
CCN(CC)CCOC(=O)c1ccccc1Br | inactive: -3.41%
O=C(CSc1nc2[nH]c(=O)cc(O)c2s1)Nc1cc(Cl)cc(Cl)c1 | inactive: 10.9%
CC(C)CCN1CN(S(=O)(=O)c2cccs2)c2nc3ccccc3nc21 | inactive: -10.1%
CCS(=O)(=O)Nc1cc(OC)c(OC)cc1Cc1nccc2cc(OC)c(OC)cc12 | inactive: -14.9%
COc1ccccc1CNS(=O)(=O)c1cc(C(=O)NCC2CCCO2)c(Cl)cc1Cl (centres undefined) | inactive: -6.34%
Cc1nnc(NC(=O)C23CC4CC(C)(CC(C)(C4)C2)C3)s1 | inactive: 10.7%
O=C(COc1cccnc1[N+](=O)[O-])NC1CCS(=O)(=O)C1 (centres undefined) | inactive: -1.84%
O=[N+]([O-])c1ccc(N/N=C\c2cccnc2)nc1 | inactive: -0.32%
COc1cc(C=O)ccc1Oc1ccc(S(=O)(=O)N2CCOCC2)cc1[N+](=O)[O-] | inactive: 8.2%

SMILES | growth rescue (activation)
CCCS(=O)(=O)NC(=O)C1(C)CCCN(C(=O)c2c(-c3ccccc3)noc2C)C1 (centres undefined) | inactive: -3.27%
CCOc1ccc(NC(=O)NC2CCOC(C)(C)C2)cc1 (centres undefined) | inactive: 25.1%
CCOC(=O)C1(C)CCCCCN1C(=O)c1ccc(C(F)(F)F)nc1C (centres undefined) | inactive: 5.29%
COc1cccc(C(=O)NC2CCCC2)c1 | inactive: 8.82%
CCCC(=NC(C)CC)C1=C(O)CC(c2ccccc2)CC1=O (centres undefined) | inactive: -45.7%
Cc1ccc(S(=O)(=O)N2CC(C)N(S(C)(=O)=O)C2)cc1 (centres undefined) | inactive: 9.49%
CC(=O)N[C@@H](Cc1c[nH]c2ccccc12)C(=O)NC1CCCc2ccccc21 (some centres undefined) | inactive: -4.63%
NS(=O)(=O)c1cc(C(=O)OCC(=O)Nc2ccc3c(c2)OCO3)ccc1Cl | inactive: 15.7%
CC(CCc1ccccc1)NC(=O)Cc1ccccc1 (centres undefined) | inactive: 31.5%
O=C(NNC1=NCCCCC1)c1cccc([N+](=O)[O-])c1 | inactive: -8.98%
COc1cccc(NC(=O)/C=C/c2ccc([N+](=O)[O-])cc2)c1 | inactive: 14.5%
COc1ccc(CN2C(=O)CCCc3ccccc32)cc1 | inactive: 15.7%
COC(=O)c1sccc1NC(=S)Nc1cc(OC)ccc1OC | inactive: -3.28%
CCc1ccccc1NC(=O)CCNC(=O)Cn1ccc2ccccc2c1=O | inactive: -4.9%
Cc1ccc(/C(N)=N/OC(=O)c2ccc(C)cc2Cl)cc1 | inactive: -80.2%
CC1=NN(C(=O)CCc2ccccc2)C(c2ccccc2)C1 (centres undefined) | inactive: 18%
COc1cc(NC(=O)COC(=O)/C=C/c2ccccc2Cl)cc(OC)c1 | inactive: 3.51%
CCOc1ccc(N2CC(C(=O)Nc3ccc4c(c3)OCCO4)CC2=O)cc1 (centres undefined) | inactive: 6.31%
NC(=O)COC(=O)c1cccc(S(=O)(=O)N2CCCCC2)c1 | inactive: 7.35%
CCn1c(SCC(=O)N2CCC(C)CC2)nnc1-c1ccco1 | inactive: -6.11%
O=C(O)CCc1nc2cc3ccccc3cc2[nH]1 | inactive: 1.56%
CSc1nnc(-c2ccccc2N=Cc2c(C)[nH]n(-c3ccccc3)c2=O)c(=O)[nH]1 | inactive: -14.6%
O=C(O)c1c2c(nc3ccccc13)/C(=C/c1c(F)cccc1F)CCC2 | inactive: 3.98%

SMILES | growth rescue (activation)
CCNC(=O)NC(=O)C(C)OC(=O)c1ccc(SC)cc1OC (centres undefined) | inactive: 18.9%
O=c1[nH]c2ccc(S(=O)(=O)NCc3ccccc3)cc2[nH]1 | inactive: 6.44%
COC(=O)CNC(=O)COC(=O)/C=C/c1cccs1 | inactive: 5.86%
CN(C)c1ccc(CNCCC(Cc2ccccc2)c2ccco2)cc1 (centres undefined) | inactive: 1.36%
Cc1cc(O)c(CN2CCN(c3ccccc3)CC2)c2oc(=O)cc(C)c12 | inactive: -2.84%
COCCn1c(SCC(=O)NNC(=O)c2ccccc2)nc2ccccc2c1=O | inactive: -1.1%
Cc1cc(NC(=O)CSc2cc(C)c3ccccc3n2)no1 | inactive: -0.891%
Cc1cc(OCCCCN2C(=O)NC(C)(C)C2=O)ccc1[N+](=O)[O-] | inactive: -3.53%
O=C(O)CN1C(=O)/C(=C\c2cccc(OC(=O)c3ccco3)c2)SC1=S | inactive: 6.37%
NS(=O)(=O)c1ccc(NC(=O)COC(=O)CCC2CCCC2)cc1 | inactive: 6.71%
O=C(CN(Cc1ccc(F)cc1)C(=O)CCC(=O)Nc1nccs1)NCc1ccc(F)cc1 | inactive: -1.83%
O=C(OCC(=O)N1CCCC1)c1ccc(S(=O)(=O)N2CCOCC2)cc1 | inactive: -5.73%
COc1ccc(NC(=O)c2cccnc2SC)cc1S(=O)(=O)N1CCCCC1 | inactive: 6.86%
CCN(Cc1ccccc1)S(=O)(=O)c1ccc2c(c1)NC(=O)CC(=O)N2 | inactive: -6.24%
Cc1ccc(C(=O)N/N=C\c2ccc(OC(=O)c3cccc(F)c3)cc2)cn1 | inactive: 14.6%
O=C(NC1CCCCC1)C(c1ccncc1)N(C(=O)c1csnn1)c1ccccc1 (centres undefined) | inactive: 5.8%
COC(=O)c1ccc2c(=O)[nH]c(COC(=O)c3[nH]c(C)c(C(C)=O)c3C)nc2c1 | inactive: 3.82%
CCc1nc(SCC(=O)Nc2ccccc2C(=O)OC)n[nH]1 | inactive: -19.5%
Cc1ccc(NC(=O)NCC(c2ccccc2)N(C)C)cc1 (centres undefined) | inactive: 11.6%
COc1ccc(N(CC(=O)NCc2ccccc2OC)S(=O)(=O)c2ccccc2[N+](=O)[O-])c(OC)c1 | inactive: 5.25%
COc1ccc(-c2cn[nH]c2-c2ccc(O)cc2O)cc1OC | inactive: 14.8%
CCOC(=O)c1[nH]c(C)c(CN(C(C)=O)c2ccc(OCC)cc2)c1C | inactive: 13%
COc1cccc(CNc2nc3cc(-c4ccc(F)cc4)sc3c(=O)n2C)c1OC | inactive: 13%
